The test deals with AK4 lymphoid leukemia ip, C3AKF1 mice, survival. The test can be described thus: NCI In Vivo Anticancer Drug Screen. Data for tumor model AK4 Lymphoid Leukemia (intraperitoneal) in C3AKF1 (CHKRF1) mice. The settings on record: endpoint: median survival time, schedule: Q01DX010 (ip), higher = longer survival. The protocol: The antitumor activity of compounds was measured in mice bearing transplantable tumors. Survival or tumor size were measured and the results are expressed as the measurement made in the treated group (T) divided by the measurement made in the vehicle treated control group (C). The tumor model used in this assay is AK4 Lymphoid Leukemia (intraperitoneal) in C3AKF1 (CHKRF1) mice

Drawing on PubChem BioAssay AID236 (DTP/NCI, 2004), this text covers T/C for 5 molecules.

Structures are written as SMILES. Toxic doses and inconclusive results are not listed. For part of its entries the source gives two or more results. The list is limited to them. There may be further records. Results that share an entry are repeats across runs, samples, wells, individuals or studies.

In the case of `CN(C)/N=N/c1nc[nH]c1C(N)=O`, for the setting “dose: 50.0 mg/kg/injection, vehicle: saline”, the T/C is 116 % of control and 150 % of control.

Regarding `NC(=O)N(CCCl)N=O`, the T/C (dose: 2.0 mg/kg/injection, vehicle: saline) is 118 % of control and 170 % of control.

`CN(Cc1cnc2nc(N)nc(N)c2n1)c1ccc(C(=O)N[C@@H](CCC(=O)O)C(=O)O)cc1`: under “dose: 0.19 mg/kg/injection, vehicle: other”, the T/C is 110 % of control and 156 % of control.

In the case of `CC[C@]1(O)C[C@H]2CN(CCc3c([nH]c4ccccc34)[C@@](C(=O)OC)(c3cc4c(cc3OC)N(C=O)[C@H]3[C@@](O)(C(=O)OC)[C@H](OC(C)=O)[C@]5(CC)C=CCN6CC[C@]43[C@@H]65)C2)C1`, the T/C (dose: 0.12 mg/kg/injection, vehicle: saline) was 112 % of control and 160 % of control.

As for `O=C(Nc1ccc(C2=NCCN2)cc1)c1ccc(C(=O)Nc2ccc(C3=NCCN3)cc2)c([N+](=O)[O-])c1`, the T/C (dose: 8.0 mg/kg/injection, vehicle: saline) is 100 % of control and 150 % of control.
